According to PMC4336329 (PLoS ONE, 2015):
The whole screen tested about 310,000 compounds, of which about 14,000 (4.5%) showed an effect of 50% or more. Effects have a minus sign here. Some of the results follow.

Target: human ether-à-go-go-related gene (hERG) potassium channel (human, UniProt Q12809)
Assay: primary screen, population patch clamp on CHO cells stably expressing hERG
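Note: peak tail current of the secondary pulse compared with the same well before compound.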

Chain of human ether-à-go-go-related gene (hERG) potassium channel (Q12809 whole entry, looked up): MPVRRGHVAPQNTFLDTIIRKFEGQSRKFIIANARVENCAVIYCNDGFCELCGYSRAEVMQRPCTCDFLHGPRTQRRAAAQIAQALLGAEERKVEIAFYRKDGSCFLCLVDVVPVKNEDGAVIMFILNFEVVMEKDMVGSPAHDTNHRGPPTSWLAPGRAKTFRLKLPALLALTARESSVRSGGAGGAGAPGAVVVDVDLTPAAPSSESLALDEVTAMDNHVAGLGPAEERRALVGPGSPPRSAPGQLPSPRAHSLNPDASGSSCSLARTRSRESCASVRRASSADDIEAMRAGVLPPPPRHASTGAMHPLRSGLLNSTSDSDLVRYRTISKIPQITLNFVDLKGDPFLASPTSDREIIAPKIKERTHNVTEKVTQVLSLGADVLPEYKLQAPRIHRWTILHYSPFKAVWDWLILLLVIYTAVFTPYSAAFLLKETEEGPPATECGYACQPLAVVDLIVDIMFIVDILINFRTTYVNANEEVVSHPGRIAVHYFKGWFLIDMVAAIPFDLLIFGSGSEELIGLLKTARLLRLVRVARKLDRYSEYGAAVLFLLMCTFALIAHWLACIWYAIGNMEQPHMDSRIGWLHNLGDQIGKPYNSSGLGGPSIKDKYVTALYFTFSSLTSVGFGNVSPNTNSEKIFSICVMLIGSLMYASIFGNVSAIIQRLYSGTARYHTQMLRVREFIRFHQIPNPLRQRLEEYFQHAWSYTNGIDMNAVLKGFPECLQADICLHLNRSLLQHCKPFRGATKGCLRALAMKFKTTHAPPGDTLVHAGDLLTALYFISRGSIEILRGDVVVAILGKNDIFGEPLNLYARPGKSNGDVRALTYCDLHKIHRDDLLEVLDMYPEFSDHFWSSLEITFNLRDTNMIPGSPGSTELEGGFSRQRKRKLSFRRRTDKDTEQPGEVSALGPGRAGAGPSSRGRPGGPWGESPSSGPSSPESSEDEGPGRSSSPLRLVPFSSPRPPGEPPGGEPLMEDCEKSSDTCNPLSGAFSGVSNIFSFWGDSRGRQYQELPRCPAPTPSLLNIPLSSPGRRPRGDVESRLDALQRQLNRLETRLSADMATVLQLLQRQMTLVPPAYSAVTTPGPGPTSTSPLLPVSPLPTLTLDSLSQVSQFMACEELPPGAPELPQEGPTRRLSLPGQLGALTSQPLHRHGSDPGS

SMILES | hERG current change (%, negative = inhibition) at 10uM [%]
CCC(=O)NCCCOc1ccccc1 | -5
Cc1ccc(CNS(=O)(=O)c2ccc3c(c2)C(C)(C)C(=O)N3C)cc1 | -4.42
COc1ccc(NC(=O)CSc2nnc(Cn3c(=O)sc4ccccc43)n2C)cc1OC | -4.51
COCCN(C(=O)c1ccc(OCC(C)C)cc1)c1c(N)n(Cc2ccccc2)c(=O)[nH]c1=O | 13.4
COc1ccc(/C=N/NC(=O)c2ccc(Br)cc2)cc1Cn1cc(Cl)cn1 | -16.6
COC(=O)c1c(N2C(=O)CC(Sc3ncccc3C(=O)O)C2=O)sc(C)c1C (stereo not drawn) | 5.89
COc1ccc(N2CC(C(=O)OCC(=O)Nc3cc(C)on3)CC2=O)cc1 (stereo not drawn) | 5.27
O=C(NC(=S)Nc1ccc(N2CCOCC2)cc1)c1ccccc1 | -9.69
O=C(Nc1cccc(C(=O)NC2CCCC2)c1)c1ccccc1 | -8.5
COc1ccc(C2=NN(C(=O)c3ccco3)C(c3cc4ccccc4nc3Cl)C2)cc1 (stereo not drawn) | 8.45
COc1ccc(N(C)C(=O)CC2(CC(=O)O)CCCCC2)cc1 | -3.61
CCOc1cc(/C=N/Nc2ccccc2Cl)ccc1OCC(=O)O | 12.4
O=C(COC(=O)CNC(=O)C1CCCCC1)Nc1ccc2c(c1)OCCO2 | 14
Cc1cc2ncc(-c3ccc(Cl)cc3)cn2n1 | 17.5
O=C(N/N=C/C(Br)=C/c1ccccc1)c1n[nH]c2c1CCC2 | -5.4
CCCCN(C)C1CCN(C(=S)Nc2ccc(OCC)cc2)CC1 | -76.7
CN(CC(=O)Nc1cccc(F)c1)C(=O)CCCc1nc2ccccc2c(=O)[nH]1 | -1.44
O=C(c1ccsc1)N1CCCC(Nc2ccc(F)c(F)c2)C1 (stereo not drawn) | -18.3
O=C(COC(=O)c1nc(Cl)ccc1Cl)Nc1ccc2c(c1)OCO2 | -3.62
CCOc1ccc(CCNC(=O)CCC(=O)N2CCSc3ccccc32)cc1OCC | -2.52
CC(=O)CSc1nnc2c3ccccc3nc(C(C)(C)C)n12 | -11.9
COc1ccc2c(c1)[nH]c1c(=O)n(N)cnc12 | 4.25

SMILES | hERG current change (%, negative = inhibition) at 10uM [%]
Cc1ccc(Cl)cc1N1CCN(C(=O)C2CCN(S(=O)(=O)c3cccnc3)CC2)CC1 | -46
Br.COc1ccc2c(c1)nc(SCC(=O)c1ccc(Br)s1)n2C | -0.582
COc1cc2cc(Br)cc(Br)c2nc1C | -12.6
O=C(Nc1nnc(C2CC2)s1)c1cc(Cl)sc1Cl | 20
CCn1c(Oc2ccccc2F)nc2c1c(=O)n(C)c(=O)n2C | 13.3
Cc1ccc(CNC(=S)Nc2ccc(OC(F)F)cc2C)cc1 | 8.43
Cc1sc2ncnc(NCC3COc4ccccc4O3)c2c1C (stereo not drawn) | -13.6
COc1cc(NC(=O)COC(=O)Cn2cnc3c2c(=O)n(C)c(=O)n3C)cc(OC)c1 | 1.05
N#Cc1ccc(NC(=O)N2CCC(c3nc4c(nnn4Cc4cccc(Cl)c4)c(=O)[nH]3)CC2)cc1 | 3.5
Cc1cccc(C(=O)N2CCCC(CCC(=O)N3CCN(c4ccccn4)CC3)C2)c1 (stereo not drawn) | -74.5
COc1cccc(CNc2ccc3[nH]c(=O)[nH]c3c2)c1OCc1ccccc1Cl | 21.9
CCOC(=O)c1ccc(N/C=C/C(=O)c2ccco2)cc1 | 9.76
CC(C)CCN1CC(C(=O)NC(C)C)CC1=O (stereo not drawn) | 13
C=CCn1c(SCCC)nc2sc3c(c2c1=O)CCc1ccccc1-3 | 14.3
N#Cc1ccc(Nc2nc(-c3ccc(O)cc3O)cs2)cc1C(F)(F)F | 11.9
COC(=O)COc1ccc(NC(=O)Cn2nc(-c3ccccc3)c3ccccc3c2=O)cc1 | 7.62
CCn1c(CNS(=O)(=O)c2ccc(Br)cc2)nnc1SC | 14.3
CCCn1c(CCNc2nc(-c3ccc(OC)cc3)cs2)nc2ccccc21 | -9.91
Cn1nc(-c2ccc(Cl)cc2)c2cc(C(=O)N3CCOCC3)sc21 | -44.8
COc1ccccc1C(=O)NCC(=O)OCC(=O)N(CC(C)C)c1c(N)n(Cc2ccccc2)c(=O)[nH]c1=O | -1.93
Cc1cc(C(=O)Nc2nnc(C3CC3)s2)c(C)s1 | 23.7
O=C1NC2(CCCCC2)C(=O)N1CCS(=O)(=O)Oc1ccccc1 | 2.81

SMILES | hERG current change (%, negative = inhibition) at 10uM [%]
COc1cc(OC)cc(/C(N)=N/O)c1 | 8.06
CC(Oc1ccc(F)cc1)c1ccnc2nc(/N=C/N(C)C)nn12 (stereo not drawn) | -2.84
Cc1ccnc(SCC(=O)N2CCC(C(N)=O)CC2)n1 | -8.43
CCc1nn2c(NCCCO)cc(C)nc2c1-c1ccc(F)cc1 | -19.7
CCCSC1=C(C#N)C(c2ccccc2OCC)CC(=O)N1 (stereo not drawn) | 1.88
O=C(CCNS(=O)(=O)c1ccc2[nH]c(=O)oc2c1)NCc1ccccc1 | 10.6
COc1ccc(NC(=O)C(NC(=O)Cc2cccs2)c2ccc(C)cc2)cc1 (stereo not drawn) | 5.92
Cc1ccc(S(=O)(=O)N2CCC(C(=O)N[C@@H](C)C(=O)NCc3ccccc3)CC2)cc1 | 2.37
CC(C)c1cccc(C(C)C)c1NC(=O)CN1CCCC1 | 23.8
COc1ccc(-c2sc3ccc(N4CCOCC4)cc3c2-c2ccc(O)cc2)cc1 | 9.46
COc1cc(C(C(=O)NC2CCCC2)N(C(=O)c2snc(C(N)=O)c2N)c2ccccc2)cc(OC)c1OC (stereo not drawn) | -32.4
CCCCn1cnc2c(cnn2-c2ccc(F)cc2)c1=O | -28
CN(C(=O)OCc1ccccc1)C(CC(N)=O)C(=O)O (stereo not drawn) | 2.49
CCOC(=O)NC(NCCc1ccccc1)(C(F)(F)F)C(F)(F)F | 13.8
COCCCn1c(=O)/c(=C\c2ccc(OC(F)F)c(OC)c2)s/c1=C(/C#N)C(N)=O | -17.6
COc1ccccc1N1C(=O)C2CC=CC(C)C2C1=O (stereo not drawn) | 10.5
COc1ccc(N2C(=O)CCC(C(=O)NCc3cccnc3)C2c2ccc(OC)c(OC)c2)cc1 (stereo not drawn) | 5.56
CN(CCn1ccnc1)Cc1cn(-c2ccccc2)nc1-c1ccc2c(c1)OCO2 | -62.9
CCC(CC)COC(=O)C(C#N)c1nc2ccccc2nc1N1CCOCC1 (stereo not drawn) | -7.91
COc1ccc(-c2oc3ccccc3c2C(=O)OCc2ccccc2OC)cc1 | -4.02
COc1ccc(OCc2cc(/C=N\NC(=O)c3ccccc3)ccc2OC)cc1 | -16.9
O=C(Nc1ccccc1)Nc1cccc(Cl)c1 | 24.8

SMILES | hERG current change (%, negative = inhibition) at 10uM [%]
Cc1occc1C(=O)Nc1cccc([N+](=O)[O-])c1 | -16.9
Cc1cc(C(=O)NN)c2cc(Br)ccc2n1 | 6.66
O=C(NC1CC1)C1=C[C@H](c2ccc(Br)cc2)C[C@H](OCc2ccc(CO)cc2)O1 | -71.1
COc1ccc(N2CCN(C3CC(=O)N(Cc4ccc(N5CCCC5=O)cc4)C3=O)CC2)cc1 (stereo not drawn) | -3.75
O=C(O)Cn1cnc2sc3c(c2c1=O)CCCC3 | 16.1
O=C(NC1CCCCC1)c1cccc(S(=O)(=O)N2CCCCC2)c1 | 6.94
Cc1cc(Cl)c2c(c1)[C@]1(C(=O)N2)[C@@H]2C(=O)N(Cc3ccccc3)C(=O)[C@@H]2[C@@H]2CCCN21 | 1.31
COc1ccc(C2C(C(=O)OCC(=O)Nc3ccc(C)cc3)CCC(=O)N2c2ccc(OC)cc2)cc1 (stereo not drawn) | -62.4
Cc1cnnc2ccc3c(no[n+]3[O-])c12 | 6.47
CCOC(=O)CSc1ccc(S(=O)(=O)N2CCCC2)cc1[N+](=O)[O-] | 13.6
O=C(NC1CCCC1)C1CCN(C(=O)c2ccccc2Cl)CC1 | 21
COc1ccc(CNC2CCSc3ccccc32)cc1OC.O=C(O)C(=O)O (stereo not drawn) | 9.97
CN(C)C(=O)Nc1cnc2ccccc2c1 | 4.29
Cc1cccc2cc(CN(Cc3cccnc3)C(=O)c3cccs3)c3nnnn3c12 | 26.1
CC(C)CNC(=O)COC(=O)CNC(=O)c1cc(Cl)cc([N+](=O)[O-])c1 | -8.91
CC(NC(=O)CN1CCN(c2ccccc2F)CC1)c1ccccc1 (stereo not drawn) | -0.99
COc1ccc(CNC(=O)C2CCN(C(=O)[C@@H]3Cc4ccccc4CN3)CC2)cc1 | -24.8
CC(C)(C)N(C(=O)Cn1nnc(-c2ccc(F)cc2)n1)C(C(=O)NC1CCCC1)c1ccncc1.Cl (stereo not drawn) | 4.92
Cc1c(NC(=O)CSc2nnc(C(C)Oc3ccc(Cl)cc3)n2-c2ccccc2)c(=O)n(-c2ccccc2)n1C (stereo not drawn) | -7.78
CCOc1ccccc1-c1cc(-c2n[nH]c(=S)n2CC)c2ccccc2n1 | 1.4
COC(=O)[C@@H](Cc1ccccc1)NC(=O)NCCc1ccc(OC)c(OC)c1 | 15.7
